# Results as given in the supplement of paper PMC8728848.
# The list shows a part of the results.
# Columns and labels:
# Assay in all cases: glycan array binding signal (z-score within array); higher = stronger binding
# Settings in all cases: glycan notation: IUPAC condensed, linker removed; mutation: R343I
# [1] = molecular target: Fuc(a1-3)[GalNAc(b1-4)]GlcNAc
# Procedure, shortened: (§1)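 From the Consortium for Functional Glycomics database, 3228 arrays were curated, keeping only those whose protein sequence was available. Binding is given as a within-array Z-score averaged across arrays sharing a protein sequence and across linkers. Negative Z-scores can be read as non-binding.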
# Fuc(a1-4)GlcNAc = molecular target: Fuc(a1-4)GlcNAc
# Procedure, shortened: as §1
# Fuc(b1-3)GlcNAc = molecular target: Fuc(b1-3)GlcNAc
# Procedure, shortened: as §1
# Gal(a1-2)Gal = molecular target: Gal(a1-2)Gal
# Procedure, shortened: as §1
# Gal(a1-3)Gal = molecular target: Gal(a1-3)Gal
# Procedure, shortened: as §1
# Gal(a1-3)Gal(b1-3)GlcNAc = molecular target: Gal(a1-3)Gal(b1-3)GlcNAc
# Procedure, shortened: as §1
# Gal(a1-3)Gal(b1-4)Glc = molecular target: Gal(a1-3)Gal(b1-4)Glc
# Procedure, shortened: as §1
# Gal(a1-3)Gal(b1-4)GlcNAc = molecular target: Gal(a1-3)Gal(b1-4)GlcNAc
# Procedure, shortened: as §1
# [2] = molecular target: Gal(a1-3)Gal(b1-4)[Fuc(a1-3)]GlcNAc
# Procedure, shortened: as §1
# Gal(a1-3)GalNAc = molecular target: Gal(a1-3)GalNAc
# Procedure, shortened: as §1
# [3] = molecular target: Gal(a1-3)[Gal(a1-4)]Gal(b1-4)GlcNAc
# Procedure, shortened: as §1
# Gal(a1-4)Gal(b1-4)Glc = molecular target: Gal(a1-4)Gal(b1-4)Glc
# Procedure, shortened: as §1
# Gal(a1-4)Gal(b1-4)GlcNAc = molecular target: Gal(a1-4)Gal(b1-4)GlcNAc
# Procedure, shortened: as §1
# Gal(a1-4)GlcNAc = molecular target: Gal(a1-4)GlcNAc
# Procedure, shortened: as §1
# Gal(a1-6)Glc = molecular target: Gal(a1-6)Glc
# Procedure, shortened: as §1
# Gal(b1-2)Gal = molecular target: Gal(b1-2)Gal
# Procedure, shortened: as §1
# Gal(b1-3)Gal = molecular target: Gal(b1-3)Gal
# Procedure, shortened: as §1
# Gal(b1-3)Gal(b1-4)GlcNAc = molecular target: Gal(b1-3)Gal(b1-4)GlcNAc
# Procedure, shortened: as §1
# Gal(b1-3)GalNAc = molecular target: Gal(b1-3)GalNAc
# Procedure, shortened: as §1
# [4] = molecular target: Gal(b1-3)GalNAc(b1-3)Gal(a1-4)Gal(b1-4)Glc
# Procedure, shortened: as §1
# [5] = molecular target: Gal(b1-3)GalNAc(b1-4)Gal(b1-4)Glc
# Procedure, shortened: as §1
# [6] = molecular target: Gal(b1-3)GalNAc(b1-4)[Neu5Ac(a2-3)]Gal(b1-4)Glc
# Procedure, shortened: as §1
# Gal(b1-3)GlcNAc = molecular target: Gal(b1-3)GlcNAc
# Procedure, shortened: as §1
# [7] = molecular target: Gal(b1-3)GlcNAc(b1-2)Man(a1-3)[Gal(b1-3)GlcNAc(b1-2)Man(a1-6)]Man(b1-4)GlcNAc(b1-4)GlcNAc
# Procedure, shortened: as §1
# [8] = molecular target: Gal(b1-3)GlcNAc(b1-3)Gal(b1-3)GlcNAc
# Procedure, shortened: as §1
# [9] = molecular target: Gal(b1-3)GlcNAc(b1-3)Gal(b1-4)Glc
# Procedure, shortened: as §1
# [10] = molecular target: Gal(b1-3)GlcNAc(b1-3)Gal(b1-4)GlcNAc
# Procedure, shortened: as §1
# [11] = molecular target: Gal(b1-3)[Fuc(a1-4)]GlcNAc
# Procedure, shortened: as §1
# [12] = molecular target: Gal(b1-3)[Fuc(a1-4)]GlcNAc(b1-3)Gal(b1-3)[Fuc(a1-4)]GlcNAc
# Procedure, shortened: as §1
# [13] = molecular target: Gal(b1-3)[Fuc(a1-4)]GlcNAc(b1-3)Gal(b1-4)GlcNAc
# Procedure, shortened: as §1
# [14] = molecular target: Gal(b1-3)[Fuc(a1-4)]GlcNAc(b1-3)Gal(b1-4)[Fuc(a1-3)]GlcNAc
# Procedure, shortened: as §1
# [15] = molecular target: Gal(b1-3)[GlcNAc(b1-6)]GalNAc
# Procedure, shortened: as §1
# [16] = molecular target: Gal(b1-3)[Neu5Ac(a2-6)]GalNAc
# Procedure, shortened: as §1
# [17] = molecular target: Gal(b1-3)[Neu5Ac(a2-6)]GlcNAc(b1-6)Gal(b1-4)Glc
# Procedure, shortened: as §1
# [18] = molecular target: Gal(b1-3)[Neu5Ac(b2-6)]GalNAc
# Procedure, shortened: as §1
# [19] = molecular target: Gal(b1-4)GalNAc(a1-3)[Fuc(a1-2)]Gal(b1-4)GlcNAc
# Procedure, shortened: as §1
# [20] = molecular target: Gal(b1-4)GalNAc(b1-3)[Fuc(a1-2)]Gal(b1-4)GlcNAc
# Procedure, shortened: as §1
# Gal(b1-4)Glc = molecular target: Gal(b1-4)Glc
# Procedure, shortened: as §1
# Gal(b1-4)Glc6S = molecular target: Gal(b1-4)Glc6S
# Procedure, shortened: as §1
# Gal(b1-4)GlcNAc = molecular target: Gal(b1-4)GlcNAc
# Procedure, shortened: as §1
# [21] = molecular target: Gal(b1-4)GlcNAc(a1-6)Gal(b1-4)GlcNAc
# Procedure, shortened: as §1
# [22] = molecular target: Gal(b1-4)GlcNAc(b1-2)Man(a1-3)[Gal(b1-4)GlcNAc(b1-2)Man(a1-6)]Man(b1-4)GlcNAc(b1-4)GlcNAc
# Procedure, shortened: as §1
# [23] = molecular target: Gal(b1-4)GlcNAc(b1-3)Gal(b1-3)GlcNAc
# Procedure, shortened: as §1
# [24] = molecular target: Gal(b1-4)GlcNAc(b1-3)Gal(b1-4)Glc
# Procedure, shortened: as §1
# [25] = molecular target: Gal(b1-4)GlcNAc(b1-3)Gal(b1-4)GlcNAc
# Procedure, shortened: as §1
binder,measurement,setting,value
Surfactant Protein D (Human); Neck + Carbohydrate Recognition Domain (NCRD) (Homo sapiens) (protein) MLLFLLSALVLLTQPLGYLEAEMKTYSHRTMPSACTLVMCSSVESGLPGRDRDGREGPRGEKGDPGLPGAAGQAGMPGQAGPVGPKGDNGSVGEPGPKGDTGPSGPPGPPGVPGPAGREGALGKQGNIGPQGKPGPKGEAGPKGEVGAPGMQGSAGARGLAGPKGERGVPGERGVPGNTGAAGSAGAMGPQGSPGARGPPGLKGDKGIPGDKGAKGESGLPDVASLRQQVEALQGQVQHLQAAFSQYKKVELFPNGQSVGEKIFKTAQFVKPFTEAQLLCTQAGGQLASPRSAAENAALQQLVVAKNEAAFLSMTDSKTEGKFTYPTGESLVYSNWAPGEPNDDGGSEDCVEIFTNGKWNDIACGEKRLVVCEF,glycan array binding signal (z-score),[1],-0.258
same,glycan array binding signal (z-score),Fuc(a1-4)GlcNAc,2.65
same,glycan array binding signal (z-score),Fuc(b1-3)GlcNAc,-0.055
same,glycan array binding signal (z-score),Gal(a1-2)Gal,-0.275
same,glycan array binding signal (z-score),Gal(a1-3)Gal,-0.267
same,glycan array binding signal (z-score),Gal(a1-3)Gal(b1-3)GlcNAc,-0.269
same,glycan array binding signal (z-score),Gal(a1-3)Gal(b1-4)Glc,-0.264
same,glycan array binding signal (z-score),Gal(a1-3)Gal(b1-4)GlcNAc,-0.275
same,glycan array binding signal (z-score),[2],-0.271
same,glycan array binding signal (z-score),Gal(a1-3)GalNAc,-0.268
same,glycan array binding signal (z-score),[3],-0.274
same,glycan array binding signal (z-score),Gal(a1-4)Gal(b1-4)Glc,-0.278
same,glycan array binding signal (z-score),Gal(a1-4)Gal(b1-4)GlcNAc,-0.274
same,glycan array binding signal (z-score),Gal(a1-4)GlcNAc,-0.27
same,glycan array binding signal (z-score),Gal(a1-6)Glc,-0.274
same,glycan array binding signal (z-score),Gal(b1-2)Gal,-0.271
same,glycan array binding signal (z-score),Gal(b1-3)Gal,-0.279
same,glycan array binding signal (z-score),Gal(b1-3)Gal(b1-4)GlcNAc,-0.269
same,glycan array binding signal (z-score),Gal(b1-3)GalNAc,-0.274
same,glycan array binding signal (z-score),[4],-0.267
same,glycan array binding signal (z-score),[5],-0.273
same,glycan array binding signal (z-score),[6],-0.27
same,glycan array binding signal (z-score),Gal(b1-3)GlcNAc,-0.272
same,glycan array binding signal (z-score),[7],-0.275
same,glycan array binding signal (z-score),[8],-0.269
same,glycan array binding signal (z-score),[9],-0.274
same,glycan array binding signal (z-score),[10],-0.279
same,glycan array binding signal (z-score),[11],-0.264
same,glycan array binding signal (z-score),[12],-0.07
same,glycan array binding signal (z-score),[13],-0.253
same,glycan array binding signal (z-score),[14],-0.273
same,glycan array binding signal (z-score),[15],-0.274
same,glycan array binding signal (z-score),[16],-0.268
same,glycan array binding signal (z-score),[17],-0.278
same,glycan array binding signal (z-score),[18],-0.276
same,glycan array binding signal (z-score),[19],-0.263
same,glycan array binding signal (z-score),[20],-0.263
same,glycan array binding signal (z-score),Gal(b1-4)Glc,-0.272
same,glycan array binding signal (z-score),Gal(b1-4)Glc6S,-0.26
same,glycan array binding signal (z-score),Gal(b1-4)GlcNAc,-0.265
same,glycan array binding signal (z-score),[21],-0.275
same,glycan array binding signal (z-score),[22],-0.269
same,glycan array binding signal (z-score),[23],-0.275
same,glycan array binding signal (z-score),[24],-0.274
same,glycan array binding signal (z-score),[25],-0.266
